Measurements from PubChem BioAssay AID588855 (National Center for Advancing Translational Sciences (NCATS), 2011).
“And” between values parts separate entries of the source, which are not always exact repeats. Equal entries are not always repeated. Out of some 410,000 compounds screened, about 5,000 (1.2%) were called active. This list was built around the results that the source calls inconclusive (neither active nor inactive); the mix of calls is not that of the screen. Calls follow the shape of the dose curve; as a rule, active = well fitted inhibition curve with a large enough effect; inconclusive = small, poorly fitted or top-dose-only effect; inactive = no such curve, though single readings can be large or run the other way. Where the call is inconclusive, the potency comes from a doubtful curve fit.

Assay: qHTS for Inhibitors of TGF-b; also: nearly all actives have a fitted effect of over 65% in size
Conditions: HepG2 CAGA-GFP TGF-b/SMAD3 reporter, GFP fluorescence, 18 h, TGF-beta stimulated, 500 pg/mL final; series mostly up to 46.1 µM
In short: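 Using HEPG2 CAGA-GFP reporter cells at 1000 cells/well, we pinned test compounds, stimulated with recombinant TGF-beta (500 pg/mL final) and measured total well GFP after 18 h.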
Potency is read from the fitted curve at half-maximal effect; tags tell the direction and shape of the fitted curve.

Structure (SMILES) | Potency
CCOc1ccc(NC(=O)CSc2oc(-c3ccc(C)cc3)nc2S(=O)(=O)c2ccc(C)cc2)cc1 | inconclusive: 5.62 µM [inhibitor, single point]
COc1ccc(-c2nc(CS(=O)CC(=O)NCc3ccc4c(c3)OCO4)c(C)o2)cc1OC (stereo unspecified) | inactive
CC(=O)c1ccsc1-c1c(C)cc2oc(=O)cc(-c3ccccc3)c2c1C | inconclusive: 35.5 µM [inhibitor, single point]
CCC1CCCCN1C(=O)CCNS(=O)(=O)c1ccc2c(c1)oc(=O)n2C (stereo unspecified) | inconclusive: 35.5 µM [inhibitor, single point]
CCSc1ccc2c(c1)N(CCCN1CCN(C)CC1)c1ccccc1S2 | inconclusive: 35.5 µM [inhibitor, single point]
CC(C)NC(=O)NC(=O)COC(=O)c1ccccc1F | inconclusive: 3.55 µM [inhibitor, single point]
CCc1cc(OCCCCNCc2ccccc2)ccc1Cl | inconclusive: 35.5 µM [inhibitor, single point]
COC(=O)Nc1ccc2c(c1)N(C(=O)CCN(C)C)c1ccccc1CC2 | inactive
COC(=O)c1ccc2nc(-c3ccc(OC)c(OC)c3)c(Cc3ccccc3OC)n2c1 | inconclusive: 15.8 µM [inhibitor, single point]
O=C1NC(Cc2ccccc2)C(=O)N1CC(=O)N1CCCc2ccccc21 (stereo unspecified) | inconclusive: 35.5 µM [inhibitor, single point]
COc1ccc(C(=O)N=c2sc3ccccc3n2C)cc1 | inconclusive: 3.16 µM [inhibitor, single point]
Cc1ccc(S(=O)(=O)N2CCOCC2)cc1NC(=O)C(c1ccc(Cl)cc1)C(C)C (stereo unspecified) | inconclusive: 12.6 µM [inhibitor, partial curve]
Cc1ccc(SC(C)C(=O)Nc2ccccc2-c2ccccc2)cc1 (stereo unspecified) | inconclusive: 2.51 µM [inhibitor, full curve, poor fit]
COc1cccc(SCc2noc(C(=O)NCCCN3CCOCC3)c2C(=O)NCCCN2CCOCC2)c1 | inactive
Cc1ccc(S(=O)(=O)N2CCC(C(=O)NC3CCCC3)CC2)cc1Cl | inconclusive: 1.78 µM [inhibitor, full curve, poor fit]
Cc1cccc(-c2nc(CN3CCCC(C(=O)NC4CCCCC4)C3)c(C)o2)c1 (stereo unspecified) | inconclusive: 11.2 µM [inhibitor, partial curve]
Cc1ccc(C(=O)N2CCC(C)CC2)cc1NC(=O)c1nsc2ccccc12 | inconclusive: 31.6 µM [inhibitor, single point]
CCOC(=O)CSc1nc2c(sc(=S)n2-c2ccc(CC)cc2)c(=O)[nH]1 | inconclusive: 20 µM [inhibitor, single point]
COc1ccccc1NC(=O)c1ccc2[nH]c(C)c(C)c2c1 | inactive
Cc1cccc(CNC(=O)CN2C(=O)CSc3c2c(C)nn3-c2ccccc2)c1 | inconclusive: 22.4 µM [inhibitor, single point]
Cc1c(O)cccc1C(=O)N[C@@H](CSc1ccccc1)[C@H](O)CN1C[C@H]2CCCC[C@H]2C[C@H]1C(=O)NC(C)(C)C | inconclusive: 31.6 µM [inhibitor, single point] and inconclusive: 22.4 µM [inhibitor, single point]

Structure (SMILES) | Potency
COc1cccc(/C=C(/C(=O)OCC(N)=O)c2ccccc2)c1 | inactive
O=C(COc1coc(CN2CCc3ccccc32)cc1=O)N1CCCCC1 | inactive
Clc1ccc(CN2CCc3c([nH]c4ccccc34)C2)cc1Cl | active: 17.8 µM
CN(C(=O)CCn1c(=S)oc2ccccc21)c1ccc(F)cc1 | inconclusive: 2.82 µM [inhibitor, single point]
COCCN(C(=O)COC(=O)c1cc2ccccc2cc1O)c1c(N)n(Cc2ccccc2)c(=O)[nH]c1=O | inconclusive: 14.1 µM [inhibitor, single point]
N#Cc1ccccc1Cn1c(-c2cscn2)nc2ccccc21 | inconclusive: 6.31 µM [inhibitor, single point]
CCOc1ccc(N(CC(=O)N/N=C/c2ccc(OC(C)C)cc2)S(C)(=O)=O)cc1 | inconclusive: 25.1 µM [inhibitor, single point]
COc1ccc(S(=O)(=O)N(C)C[C@@H]2OCc3cnnn3CCCC(=O)N([C@@H](C)CO)C[C@@H]2C)cc1 | inactive
NC(=O)c1ncn([C@@H]2O[C@H](CNCc3ccc(OCC(=O)Nc4nccs4)cc3)[C@@H](O)[C@H]2O)n1 | inactive
Cc1ccc(-c2[nH]ncc2/C=C(\C#N)C(=O)NC2CCCCC2)cc1 | inconclusive: 35.5 µM [inhibitor, single point]
CNc1ccc(/C=C2\C=Cc3ccccc32)cc1 | inconclusive: 10 µM [inhibitor, partial curve, poor fit]
Nc1cccc(Nc2nc(OC(C(F)(F)F)C(F)(F)F)nc(OC(C(F)(F)F)C(F)(F)F)n2)c1 | inconclusive: 3.98 µM [inhibitor, full curve, poor fit]
CC1=Nc2ccccc2/C1=C(/C)c1c(C)[nH]c2ccccc12 | inactive
COc1ccc(/C=N/NC(=O)c2ccc(O)cc2O)cc1CSc1ccccn1 | inconclusive: 35.5 µM [inhibitor, single point]
Cc1ccc(C(=O)CC2(O)C(=O)N(Cc3ccccc3)c3ccc(Br)cc32)cc1 (stereo unspecified) | inconclusive: 35.5 µM [inhibitor, single point]
O=C(CCc1ccc(S(=O)(=O)NCCc2ccccc2)cc1)NCc1ccc2c(c1)OCO2 | inconclusive: 2.51 µM [inhibitor, partial curve, poor fit]
Cc1cc(O)c(C(C)C)cc1N=Nc1ccccc1C(=O)O | inconclusive: 1.26 µM [inhibitor, full curve, poor fit]
NS(=O)(=O)c1ccc(CCNC(=O)CSc2nc3ccsc3c(=O)n2CCCCCC(=O)O)cc1 | inactive
Cc1cc(C)c(S(N)(=O)=O)c(C)c1-n1cnnn1 | inactive
Cc1cc(OCC(=O)N(C(C)C)C(C)C)ccc1Cl | inconclusive: 7.08 µM [inhibitor, full curve, poor fit]
